Drawing on PubChem BioAssay AID1745853 (National Center for Advancing Translational Sciences (NCATS), 2022), this text covers activity change, negative = inhibition for 30 compounds.

Each structure is given as a SMILES string. The list shows a part of the results. These are further read-outs of the screen, such as a control signal, another cell line or another target. No call is given for them.

Assay in all cases: Primary Screen for Target Class Profiling of Small Molecule Inhibitors of Methyltransferases
Assay [1] has as its target Glycine N-methyltransferase (Homo sapiens) (UniProt Q14749). Conditions: purified enzyme, MTase-Glo SAH luminescence; measured here: GNMT inhibition; at 40 µM; stronger effect = lower value. The method, boiled down: (§1)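 Each enzyme was reacted with SAM and its substrate, with compounds tested once at 40 uM; SAH formed was read by MTase-Glo luminescence.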
Assay [2] has as its target Guanidinoacetate N-methyltransferase (Homo sapiens) (UniProt Q14353). Conditions: purified enzyme, MTase-Glo SAH luminescence; measured here: GAMT inhibition; at 40 µM; stronger effect = lower value. An outline of the steps:
as §1

In assay [3] the target is Histamine N-methyltransferase (Homo sapiens) (UniProt P50135). Conditions: purified enzyme, MTase-Glo SAH luminescence; measured here: HNMT inhibition; at 40 µM; stronger effect = lower value. The method, boiled down:
as §1

Assay [4] addresses Nicotinamide N-methyltransferase (Homo sapiens) (UniProt P40261). Conditions: purified enzyme, MTase-Glo SAH luminescence; measured here: NNMT inhibition; at 40 µM; stronger effect = lower value. An outline of the steps:
as §1

The target in assay [5] is Phenylethanolamine N-methyltransferase (Homo sapiens) (UniProt P11086). Conditions: purified enzyme, MTase-Glo SAH luminescence; measured here: PNMT inhibition; at 40 µM; stronger effect = lower value. An outline of the steps: as §1
% is scaled to controls: 0 for no effect and ±100 for the full control effect.

Consider `Cc1cc(C)n(Cc2cccc(C(=O)N3Cc4ccccc4C(O)C3)c2)n1` (centres undefined), for which the activity change, negative = inhibition in assay [1] was -3.9%; in assay [2], 0.998%; in assay [3] it was -0.17%; in assay [4], -0.781%; in assay [5], 7.08%.
As for `CCCN1C(=O)c2c(C(=O)NCc3cccc(C)c3)ncn2CC1(C)C(=O)NCCC(C)C` (centres undefined), the activity change, negative = inhibition in assay [1] is 0.069%; in assay [2], 0%; in assay [3], 9.08%; in assay [4], 4.65%; in assay [5], 8.23%.
On to `CNC(=O)[C@@H]1C[C@H](Oc2ccccc2)CN1S(=O)(=O)Cc1ccccc1F`, for which the activity change, negative = inhibition is -3.96% in assay [1]; -7.48% in assay [2]; 0.405% in assay [3]; -6.34% in assay [4]; -1.97% in assay [5].
In the same order, the values of `COc1ccc(C(=O)N2CC(N(C3CCOCC3)S(C)(=O)=O)C2)cn1` are -2.85%, -3.43%, -1.12%, -11.5% and -6.31%.
As to `CC#CCn1c(N2CCCC(N)C2)nc2c1c(=O)n(Cc1nc(C)c3ccccc3n1)c(=O)n2C` (centres undefined), the activity change, negative = inhibition in assay [1] was -0.37%; in assay [3], 0.925%.
Take `NCCCS(=O)(=O)O`: the activity change, negative = inhibition in assay [1] is -5.58%; in assay [2], -0.207%; in assay [3], 0.082%; in assay [4], -5.6%; in assay [5], 6.89%.
`COC[C@@H]1OC[C@@]2(C)C3CC[C@@H](O)[C@@H](CC(=O)N4CCCCC4)[C@]3(C)CC[C@H]2O1` (some centres undefined): the activity change, negative = inhibition is -0.935% in assay [1]; -1.31% in assay [2]; -3.52% in assay [3]; -2.28% in assay [4]; -0.511% in assay [5].
On to `CC1(C(=O)NC2CCCCCC2)Cn2c(ccc2-c2ccco2)C(=O)N1CCCc1ccccc1` (centres undefined), for which the activity change, negative = inhibition was -2.21% in assay [1]; 0% in assay [2]; 6.17% in assay [3]; 5.66% in assay [4]; 1.88% in assay [5].
For `CC(C)CCn1c(=O)c2ccc(C(=O)NCC(C)C)cc2n2c(=O)n(CC(=O)c3ccccc3)nc12`, in that order: 0.845%, 7.19%, 2.69%, -2.43% and 3.42%.
For `CCC(C)NC(=O)c1ccc2c(=O)n(C(C)C)c3nn(CC(=O)c4ccccc4)c(=O)n3c2c1` (centres undefined), in that order: 6.16%, 1.77%, 7.81%, 4.16% and 6.03%.
In the case of `O=C(O)C1(c2ccc(-c3ccc(Cl)c(Cl)c3)c(F)c2)CC1`, the activity change, negative = inhibition in assay [1] was -31.2%; in assay [2], -20.6%; in assay [3] it was -7.83%; in assay [4] it was -46.5%; in assay [5], -9.07%.
For the compound `CCOc1ccc(CCNC(=O)CCc2nnc3n(Cc4ccccc4Cl)c(=O)c4ccccc4n23)cc1`, the activity change, negative = inhibition in assay [1] was -5.12%; in assay [2] it was 1.45%; in assay [3] it was -0.86%; in assay [4] it was 7.41%; in assay [5] it was -4.07%.
Consider `COCCCNC(=O)c1cc2n(n1)CC(C)(C(=O)NCc1ccc(F)cc1)N(C)C2=O` (centres undefined), for which the activity change, negative = inhibition in assay [1] was 1.17%; in assay [2], -1.44%; in assay [3], -4.17%; in assay [4], -2.32%; in assay [5], -3.31%.
On to `NC(=O)CN1CCC(c2nc(-c3ccc4nc[nH]c4c3)no2)CC1`, for which the activity change, negative = inhibition in assay [1] is -3.11%; in assay [2], 2.38%; in assay [3], 1.43%; in assay [4], -3.6%; in assay [5], 1.28%.
Turning to `O=C(CC1CCOC2(CCN(S(=O)(=O)c3ccccc3)CC2)C1)N1CCOCC1` (centres undefined), the activity change, negative = inhibition in assay [1] came out at 0.083%; in assay [2], 0%; in assay [3], 0.248%; in assay [4], 0.084%; in assay [5], 3.03%.
Take `CCOC(=O)c1cc2n(n1)CC(C)(C(=O)NC1CCCCC1)N(Cc1ccc(C)cc1)C2=O` (centres undefined): the activity change, negative = inhibition is 0.027% in assay [1]; 0.986% in assay [2]; -10.9% in assay [3]; -1.04% in assay [4]; 0.675% in assay [5].
For `O=C1Nc2ccc(Cl)cc2[C@@](C#CC2CC2)(C(F)(F)F)O1`, the activity change, negative = inhibition was -1.93% in assay [1]; -2.14% in assay [2]; -6.95% in assay [3]; -59.6% in assay [4]; -12.4% in assay [5].
`CCCCC1C(=O)N(C)CCN1c1nc2c(s1)c(C)nn2C` (centres undefined): the activity change, negative = inhibition was -9.45% in assay [1]; -9.71% in assay [2]; -7.28% in assay [3]; -17.9% in assay [4]; -8.87% in assay [5].
As to `C=C(C(=O)OC[C@H]1O[C@@H](OC(=O)/C=C/c2ccccc2)[C@H](O)[C@@H](O)[C@@H]1O)C(O)CO` (some centres undefined), the activity change, negative = inhibition in assay [1] was -4.36%; in assay [2], -5.71%; in assay [3], 8.72%; in assay [4] it was -17.5%; in assay [5] it was -12.2%.
Turning to `CCNc1ncnc2sc3c(c12)CCN(Cc1ccco1)C3`, the activity change, negative = inhibition in assay [1] was -24.5%; in assay [2], -7.92%; in assay [3], -12.2%; in assay [4] it was -36.2%; in assay [5] it was -14.4%.
For `CC(C)NC(=O)c1ccc2c(=O)n(Cc3ccccc3)c3nn(CC(=O)NC4CCCC4)c(=O)n3c2c1`, in that order: -5.27%, -2.23%, -2.2%, -5.43% and -3.6%.
For `O=C(c1cnn2cccnc12)N(Cc1ccncc1)Cc1cccc(OCCc2ccc(F)cc2)c1`, in that order: -8.64%, -7.58%, -5.29%, -12.4% and -2.55%.
In the same order, the values of `COc1ccc(CCN2C(=O)c3ccccc3CC2(C)C(=O)NC2CCCCC2)cc1OC` (centres undefined) are -2.56%, 1.28%, 10.3%, 4.78% and 2.25%.
For `COc1ccc(CCN2C(=O)c3cc4oc(C)cc4n3CC2(C)C(=O)NC2CCCCC2)cc1OC` (centres undefined), the activity change, negative = inhibition in assay [1] is -2.27%; in assay [2], 0.809%; in assay [3], 0.599%; in assay [4] it was -64.3%; in assay [5], -2.69%.
Turning to `COCCNC(=O)[C@@H]1CCC[C@@H](NC(=O)c2c(-c3ccccc3)noc2C)CN(C)C(=O)C1`, the activity change, negative = inhibition in assay [1] is -1.59%; in assay [2] it was -0.876%; in assay [3] it was -0.695%; in assay [4], -5.78%; in assay [5] it was -1.12%.
As to `Cc1ccc(NC(=O)N2CCC(c3noc(COCC4CC4)n3)CC2)cc1F`, the activity change, negative = inhibition in assay [1] was -5.55%; in assay [2], -6.7%; in assay [3], -1.72%; in assay [4], -4.68%; in assay [5], 1.44%.
As to `COc1cc(CCc2cc(NC(=O)c3ccc(N4CC(C)NC(C)C4)cc3)n[nH]2)cc(OC)c1` (centres undefined), the figures for the activity change, negative = inhibition in assay [1] and in assay [3] were -4.56% and -18.8%, respectively.
For the compound `Cn1nc(N2CCC(NS(=O)(=O)c3ccc4c(c3)CCC4)CC2)ccc1=O`, the activity change, negative = inhibition in assay [1] was -3.06%; in assay [2], -4.07%; in assay [3], -2.46%; in assay [4] it was -14.1%; in assay [5], -26.2%.
In the case of `CCOc1nc2cccc(C(=O)O)c2n1Cc1ccc(-c2ccccc2-c2nn[nH]n2)cc1`, the activity change, negative = inhibition was -5.25% in assay [1]; -1.84% in assay [2]; 6.62% in assay [3]; -16.3% in assay [4]; -3.82% in assay [5].
`O=C([C@@H]1C[C@H](Oc2cccnc2)CN1C(=O)c1cc2ccccc2[nH]1)N1CCCC1`: the activity change, negative = inhibition in assay [1] is -1.06%; in assay [2], 6.09%; in assay [3], 1.84%; in assay [4], 0.02%; in assay [5], 7.13%.
